The text below walks through data of the supplement of paper PMC9174493.

Assay [1] deals with A549-Dual. Briefly: NF-kB reporter (SEAP) activity, viability-corrected, relative to vehicle (fold change vs vehicle); higher = more activation of STING-IRF / NF-kB immune response reporter. The settings on record: 10 µM.
Assay [2] concerns A549-Dual. Briefly: ISRE reporter (Lucia luciferase) activity, viability-corrected, relative to vehicle (fold change vs vehicle); higher = more activation of STING-IRF / NF-kB immune response reporter. The settings on record: 10 µM.

Some of the results follow. Single values of this set are uncertain. Values with irradiation are relative to irradiated vehicle.
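Wherever NF-kB reporter (SEAP) activity, viability-corrected, relative to vehicle is given: viability correction based on the alamar blue assay, with concentrations leaving 10% survival or less dropped.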

Take `O=C(O)[C@@H]1CCCN1` [L-Proline]: the NF-kB reporter with A549-Dual [1] (irradiation: 8 Gy/4 fr) stood at 1.44; with A549-Dual [1] (irradiation: none), 0.857. For the same compound, the ISRE reporter in the assay with A549-Dual [2] (irradiation: 8 Gy/4 fr) was 1.26; in the assay with A549-Dual [2] (irradiation: none), 0.796.

Regarding `CNCCc1ccccn1.CS(=O)(=O)O.CS(=O)(=O)O` [Betahistine mesylate], the NF-kB reporter was found to be 0.872 in the assay with A549-Dual [1] (irradiation: 8 Gy/4 fr) and 1.15 in the assay on A549-Dual [1] (irradiation: none). Besides, the ISRE reporter came out at 0.681 with A549-Dual [2] (irradiation: 8 Gy/4 fr) and 0.637 with A549-Dual [2] (irradiation: none).

As to `OCc1ccc(Cl)cc1Cl` [2,4-dichlorobenzyl alcohol], the NF-kB reporter was determined as 0.809 in the assay with A549-Dual [1] (irradiation: 8 Gy/4 fr) and 1.04 in the assay on A549-Dual [1] (irradiation: none). The ISRE reporter with A549-Dual [2] (irradiation: 8 Gy/4 fr) came to 0.862; in the assay with A549-Dual [2] (irradiation: none) it was 1.01.

`CCC1OC(=O)C(C)C(OC2CC(C)(OC)C(O)C(C)O2)C(C)C(OC2OC(C)CC(N(C)C)C2O)C(C)(O)CC(C)C2NC(COCCOC)OC(C2C)C1(C)O` (stereo not drawn) [Dirithromycin]: the NF-kB reporter was 0.868 in the assay with A549-Dual [1] (irradiation: 8 Gy/4 fr) and 0.925 in the assay with A549-Dual [1] (irradiation: none). Also, the figures for the ISRE reporter in the assay with A549-Dual [2] (irradiation: 8 Gy/4 fr) and in the assay on A549-Dual [2] (irradiation: none) were 0.994 and 0.87, respectively.

Consider `O=C(O)CCNC(=O)c1ccccc1` [Betamipron], for which the NF-kB reporter in the assay on A549-Dual [1] (irradiation: 8 Gy/4 fr) amounted to 0.843; in the assay with A549-Dual [1] (irradiation: none), 1.19. Besides, the values for the ISRE reporter in the assay with A549-Dual [2] (irradiation: 8 Gy/4 fr) and in the assay with A549-Dual [2] (irradiation: none) were 0.718 and 0.825, respectively.

As for `CCOC(=O)[N-]c1c[n+](N2CCOCC2)no1` [Molsidomine], the NF-kB reporter with A549-Dual [1] (irradiation: 8 Gy/4 fr) was 0.797; in the assay on A549-Dual [1] (irradiation: none) it was 0.935. Besides, the ISRE reporter with A549-Dual [2] (irradiation: 8 Gy/4 fr) was 0.775; in the assay on A549-Dual [2] (irradiation: none) it was 0.66.

`Cl.NCc1ccc(S(N)(=O)=O)cc1` [Mafenide hydrochloride]: the NF-kB reporter turned out to be 0.704 in the assay on A549-Dual [1] (irradiation: 8 Gy/4 fr) and 0.917 in the assay with A549-Dual [1] (irradiation: none). For the same compound, the ISRE reporter in the assay with A549-Dual [2] (irradiation: 8 Gy/4 fr) is 0.742; in the assay on A549-Dual [2] (irradiation: none) it was 0.864.

Turning to `NC(=O)N/N=C/c1ccc([N+](=O)[O-])o1` [Nitrofural], the values for the NF-kB reporter with A549-Dual [1] (irradiation: 8 Gy/4 fr) and with A549-Dual [1] (irradiation: none) were 0.538 and 0.848, respectively. Further, the ISRE reporter in the assay with A549-Dual [2] (irradiation: 8 Gy/4 fr) was 0.51; with A549-Dual [2] (irradiation: none) it was 0.728.

In the case of `CC12C=CC(=O)NC1CCC1C2CCC2(C)C(C(=O)Nc3cc(C(F)(F)F)ccc3C(F)(F)F)CCC12` (stereo not drawn) [Dutasteride], the results for the NF-kB reporter in the assay on A549-Dual [1] (irradiation: 8 Gy/4 fr) and with A549-Dual [1] (irradiation: none) were 0.584 and 0.79, respectively. For the same compound, the ISRE reporter was determined as 0.645 with A549-Dual [2] (irradiation: 8 Gy/4 fr) and 0.864 in the assay on A549-Dual [2] (irradiation: none).

As to `CCCS(=O)c1ccc2nc(NC(=O)OC)[nH]c2c1` (stereo not drawn) [Albendazole Oxide], the NF-kB reporter worked out at 0.826 in the assay on A549-Dual [1] (irradiation: 8 Gy/4 fr) and 1.36 with A549-Dual [1] (irradiation: none). Further, the ISRE reporter with A549-Dual [2] (irradiation: 8 Gy/4 fr) came to 0.732; in the assay on A549-Dual [2] (irradiation: none) it was 1.83.

Turning to `CCC(C)C(=O)OC1CC(O)C=C2C=CC(C)C(CCC(O)CC(O)CC(=O)O)C21` (stereo not drawn) [Pravastatin], the NF-kB reporter was found to be 0.736 in the assay on A549-Dual [1] (irradiation: 8 Gy/4 fr) and 0.805 in the assay with A549-Dual [1] (irradiation: none). In addition, the figures for the ISRE reporter in the assay with A549-Dual [2] (irradiation: 8 Gy/4 fr) and in the assay with A549-Dual [2] (irradiation: none) were 0.786 and 0.746, respectively.

With `O=C1CC(c2ccc(O)c(O)c2)Oc2cc(O)cc(O)c21` (stereo not drawn) [Eriodictyol], the values for the NF-kB reporter with A549-Dual [1] (irradiation: 8 Gy/4 fr) and in the assay with A549-Dual [1] (irradiation: none) were 1.57 and 2.75, respectively. The results for the ISRE reporter in the assay on A549-Dual [2] (irradiation: 8 Gy/4 fr) and in the assay on A549-Dual [2] (irradiation: none) were 1.07 and 4.71, respectively.
